Data on 13 molecules can be found in the supplement of paper PMC4604168 (melanoma cell lines).

Holding throughout (assay): cell count relative to DMSO control; melanoma cells; higher = more viable cells
Holding throughout (conditions): library dose: low library concentration; 72 h

Experiment [1] has as its system WM115.
Experiment [2] deals with WM1716.
Experiment [3] deals with WM1745.
Experiment [4] has as its system WM3526.
In experiment [5] the test system is WM3619.
Experiment [6] deals with WM451Lu.

The other results are listed elsewhere or left out. Repeats are few or missing, and single values can be far off.
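Further: cell number obtained by counting DAPI-stained nuclei in high-throughput microscope images with image analysis software, screen run in 1,536-well plates.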

For `Clc1ccc(Nc2nnc(Cc3ccncc3)c3ccccc23)cc1` [vatalanib] + COc1ccc(COc2ccc(Cc3cnc(N)nc3N)cc2OC)cc1 [GW2580] (first compound 2 µM, partner dose 1 µM), the cell count in experiment [1] stood at 96.9%; in experiment [2], 93.6%; in experiment [3] it was 81.3%; in experiment [4] it was 94.7%; in experiment [5], 109%; in experiment [6] it was 114%.

Consider `Clc1ccc(Nc2nnc(Cc3ccncc3)c3ccccc23)cc1` [vatalanib] + O=C(O)c1ccc(-c2c[nH]c3ncc(-c4ccccc4)cc23)cc1C1CCCC1 [GSK650394] (first compound 2 µM, partner dose 0.16 µM), for which the cell count was 91.9% in experiment [1]; 94.7% in experiment [2]; 83.7% in experiment [3]; 97.1% in experiment [4]; 117% in experiment [5]; 109% in experiment [6].

For the molecule `OCc1c[nH]c2ccccc12` [Indole-3-carbinol] + Oc1nc(-c2ccc(C(F)(F)F)cc2)nc2c1CSCC2 [XAV939] (first compound 0.8 µM, partner dose 2 µM), the cell count was found to be 86.6% in experiment [1]; 60.5% in experiment [2]; 77.6% in experiment [3]; 108% in experiment [4]; 95.2% in experiment [5]; 101% in experiment [6].

For `OCc1c[nH]c2ccccc12` [Indole-3-carbinol] + COCC[n+]1c2c(n(Cc3cnccn3)c1C)C(=O)c1ccccc1C2=O [YM155] (first compound 0.8 µM, partner dose 0.0004 µM), the cell count in experiment [1] stood at 113%; in experiment [2], 97.2%; in experiment [3] it was 98.5%; in experiment [4] it was 85.2%; in experiment [5], 97.5%; in experiment [6], 72.7%.

As to `OCc1c[nH]c2ccccc12` [Indole-3-carbinol] + Cc1cc([N+](=O)[O-])ccc1NS(=O)(=O)c1cc(Cl)ccc1Cl [FH535] (first compound 0.8 µM, partner dose 1 µM), the cell count in experiment [1] was 89.1%; in experiment [2], 98.7%; in experiment [3], 116%; in experiment [4] it was 99.8%; in experiment [5], 100%; in experiment [6], 95.2%.

Turning to `COCC[n+]1c2c(n(Cc3cnccn3)c1C)C(=O)c1ccccc1C2=O` + CN(C)S(=O)(=O)c1ccc2c(c1)/C(=C/c1cc3c([nH]1)CCCC3)C(=O)N2 [SU6656] (first compound 0.0004 µM, partner dose 0.4 µM), the cell count in experiment [1] amounted to 87.3%; in experiment [2] it was 89.9%; in experiment [3], 92.5%; in experiment [4], 108%; in experiment [5], 97.8%; in experiment [6] it was 67.4%.

Take `OCc1c[nH]c2ccccc12` [Indole-3-carbinol] + COc1ccc(COc2ccc(Cc3cnc(N)nc3N)cc2OC)cc1 [GW2580] (first compound 0.8 µM, partner dose 1 µM): the cell count came out at 102% in experiment [1]; 97.4% in experiment [2]; 107% in experiment [3]; 113% in experiment [4]; 107% in experiment [5]; 96.3% in experiment [6].

Regarding `Nc1cccc2c1CN(C1CCC(=O)NC1=O)C2=O` (stereo not drawn) [lenalidomide] + C[C@]1(c2nc3c(C(N)=O)cccc3[nH]2)CCCN1 [Veliparib] (first compound 1 µM, partner dose 1.4 µM), the cell count stood at 85.3% in experiment [1]; 91.5% in experiment [2]; 89.6% in experiment [3]; 105% in experiment [4]; 98.9% in experiment [5]; 104% in experiment [6].

For the molecule `COCC[n+]1c2c(n(Cc3cnccn3)c1C)C(=O)c1ccccc1C2=O` + Cc1cc([N+](=O)[O-])ccc1NS(=O)(=O)c1cc(Cl)ccc1Cl [FH535] (first compound 0.0004 µM, partner dose 1 µM), the cell count was 69.5% in experiment [1]; 92.5% in experiment [2]; 93.8% in experiment [3]; 89% in experiment [4]; 101% in experiment [5]; 89.3% in experiment [6].

On to `O=C(CCCCCCC(=O)Nc1ccccc1)NO` [vorinostat] + CN(C)S(=O)(=O)c1ccc2c(c1)/C(=C/c1cc3c([nH]1)CCCC3)C(=O)N2 [SU6656] (first compound 0.08 µM, partner dose 0.4 µM), for which the cell count came out at 82.1% in experiment [1]; 108% in experiment [2]; 107% in experiment [3]; 105% in experiment [4]; 100% in experiment [5]; 109% in experiment [6].

In the case of `Clc1ccc(Nc2nnc(Cc3ccncc3)c3ccccc23)cc1` [vatalanib] + O=C(Nc1ccccc1)c1cc([N+](=O)[O-])ccc1Cl [GW9662] (first compound 2 µM, partner dose 2 µM), the cell count in experiment [1] is 86.2%; in experiment [2], 88.6%; in experiment [3], 72.1%; in experiment [4], 91.8%; in experiment [5], 137%; in experiment [6] it was 92.2%.

Take `COCC[n+]1c2c(n(Cc3cnccn3)c1C)C(=O)c1ccccc1C2=O` + CN(NC(=O)CC(=O)NN(C)C(=S)c1ccccc1)C(=S)c1ccccc1 [STA4783] (first compound 0.0004 µM, partner dose 0.006 µM): the cell count worked out at 67.9% in experiment [1]; 54.2% in experiment [2]; 23.7% in experiment [3]; 80.7% in experiment [4]; 28.3% in experiment [5]; 70.7% in experiment [6].

As to `COCC[n+]1c2c(n(Cc3cnccn3)c1C)C(=O)c1ccccc1C2=O` + NC(=O)Nc1cc(-c2cccc(F)c2)sc1C(=O)N[C@H]1CCCNC1 [AZD7762] (first compound 0.0004 µM, partner dose 0.02 µM), the cell count in experiment [1] came to 95.7%; in experiment [2], 106%; in experiment [3], 104%; in experiment [4] it was 81.9%; in experiment [5], 58.6%; in experiment [6], 60.8%.
